Results on one molecule are retold here after patent US20250136696A1 (HARBOUR BIOMED SHANGHAI, published 2025).

The target in assay [1] is T1, human B7-H7 on the cell surface (human, UniProt Q9UM44 23-414).
T1 construct: whole, on cells; also called hB7-H7; hu B7-H7
T1 sequence (looked up): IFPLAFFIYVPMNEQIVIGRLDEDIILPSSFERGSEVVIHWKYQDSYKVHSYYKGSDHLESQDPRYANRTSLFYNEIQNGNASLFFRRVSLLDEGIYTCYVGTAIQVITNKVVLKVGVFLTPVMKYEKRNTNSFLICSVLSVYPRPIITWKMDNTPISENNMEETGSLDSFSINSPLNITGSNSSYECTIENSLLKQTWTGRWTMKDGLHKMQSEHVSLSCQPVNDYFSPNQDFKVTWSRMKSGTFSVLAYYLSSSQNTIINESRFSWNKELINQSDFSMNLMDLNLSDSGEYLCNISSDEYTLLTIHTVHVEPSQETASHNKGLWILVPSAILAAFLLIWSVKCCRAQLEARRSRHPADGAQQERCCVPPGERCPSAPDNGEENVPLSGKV
In words: flow cytometry, HCC827 cells. The procedure:
(§1) This example was intended to study the in vitro activity of H2L2 monoclonal antibodies against human B7-H7 in binding to human/cynomolgus monkey B7-H7. Since homologous molecules of B7-H7 were not present in mice, the detection was not performed. […] The cells were adjusted to a cell density of 1×10⁶ cells/mL, respectively. The cells were seeded in a 96-well V-bottom plate (Corning, #3894) at 100 μL/well, and the antibody to be tested at 2× final concentration with 3-fold concentration gradient dilution was then added at 100 μL/well. The cells were incubated at 4° C. for 2 hours in the dark. After the incubation, the cells were rinsed twice by adding pre-chilled PBS containing 2% BSA at 100 μl/well, and centrifuged at 500 g at 4° C. for 5 minutes, and the supernatant was discarded. […] The cells were washed twice by adding pre-chilled PBS containing 2% BSA at 100 μL/well, and centrifuged at 500 g at 4° C. for 5 minutes, and the supernatant was discarded. Finally, the cells were resuspended in pre-chilled PBS containing 2% BSA at 200 μL/well, and the fluorescence signal values were read using an ACEA Novocyte3000 flow cytometer.

Assay [2] addresses T2, cynomolgus monkey B7-H7 on the cell surface (cynomolgus monkey).
T2 construct: whole, on cells; also called cyno B7-H7
Put plainly: flow cytometry, HEK-293/cyno B7-H7 cells. As for the experimental part:
as §1
On the technique in general: A flow cytometer gives signals particle by particle.

Assay [3] deals with T1, human B7-H7 on the cell surface. In words: flow cytometry, HEK-293/hu B7-H7 cells. The procedure: as §1
The target of assay [4] is T3, human B7-H7 recombinant protein (human, UniProt Q9UM44 23-344).
T3 construct: also called human B7-H7 protein
T3 sequence (looked up): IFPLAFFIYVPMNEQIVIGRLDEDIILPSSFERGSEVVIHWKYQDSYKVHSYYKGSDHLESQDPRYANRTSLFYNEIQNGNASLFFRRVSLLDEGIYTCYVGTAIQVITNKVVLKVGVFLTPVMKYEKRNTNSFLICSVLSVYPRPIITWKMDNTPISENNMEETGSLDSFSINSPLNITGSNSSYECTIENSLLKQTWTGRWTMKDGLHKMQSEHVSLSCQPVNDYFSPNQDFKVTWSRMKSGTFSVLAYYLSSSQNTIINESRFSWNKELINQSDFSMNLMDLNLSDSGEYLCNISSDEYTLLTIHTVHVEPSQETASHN
Put plainly: BLI (Octet), antibody captured on AHC sensor, human B7-H7 in solution, 1:1 global fit. As for the experimental part:
The binding kinetics between antigen and antibody was analyzed using an Octet Red 96e (Fortebio) molecular interaction analyzer by biolayer interferometry (BLI) technology.
For determining the affinity of antibodies for antigens, the rotary speed of the sensor was set at 1000 rpm. AHC sensors (Fortebio, #18-5060) placed in one column were first equilibrated in a test buffer for 10 minutes, and then used to capture the anti-B7-H7 antibodies at a capture height of 0.7 nm; and after being equilibrated in the buffer for 120 s, the AHC sensors bound to human B7-H7 (concentrations: 50-3.125 nM and 0 nM) with 2-fold gradient dilution for 180 s and dissociated for 300 s. The AHC sensors were finally regenerated by immersing in a 10 mM glycine-hydrochloric acid solution with pH 1.5 to elute the protein bound to the sensors.
For data analysis using Octet Data Analysis software (Fortebio, version 11.0), 0 nM well was used as the reference well, reference subtraction was performed, “1:1 Global fitting” method was selected for data fitting, the kinetic parameters of the binding of the antigen to the antigen-binding protein were calculated, and the kₒₙ (1/Ms) value, kdis (1/s) value and KD (M) value were obtained.
For orientation: Biolayer interferometry detects binding as a change in optical thickness at a sensor tip.

Assay [5] deals with T4, biotinylated human B7-H7 protein (Acro Biosystems, B77-H82F5) (human, UniProt Q9UM44 23-344, biotinylated).
T4 construct: Bought soluble protein; also called biotin-B7H7 protein
T4 sequence (looked up): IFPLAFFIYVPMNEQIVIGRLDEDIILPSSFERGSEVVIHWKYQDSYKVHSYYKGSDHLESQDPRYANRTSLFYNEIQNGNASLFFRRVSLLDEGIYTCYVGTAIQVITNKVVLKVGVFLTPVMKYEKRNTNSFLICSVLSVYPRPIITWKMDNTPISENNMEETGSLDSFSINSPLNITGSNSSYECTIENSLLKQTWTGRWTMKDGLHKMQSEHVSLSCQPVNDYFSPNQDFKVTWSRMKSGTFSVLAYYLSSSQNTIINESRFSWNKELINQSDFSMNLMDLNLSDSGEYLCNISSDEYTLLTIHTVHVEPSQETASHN
In words: flow cytometry, blocking of biotinylated human B7-H7 binding to CHO-K1/KIR3DL3 cells. The source says:
(§2) This example was intended to study the in vitro blocking activity of human anti-B7-H7 antibodies against the binding of human B7-H7 to its receptor KIR3DL3. A CHO-K1 cell (CHO-K1/KIR3DL3, Harbour BioMed US, Inc.) overexpressing human KIR3DL3 was used in experiments at the cellular level where human B7-H7/human KIR3DL3 binding was blocked. Briefly, the CHO-K1/KIR3DL3 cells were digested and resuspended in PBS containing 2% BSA. The cells were adjusted to a cell density of 1×10⁶ cells/mL. […] The cells were incubated at 4° C. for 1 hour in the dark. […] The cells were rinsed twice by adding pre-chilled PBS containing 2% BSA at 100 μL/well, and were centrifuged at 500 g at 4° C. for 5 minutes, and the supernatant was discarded. A fluorescent secondary antibody (PE Streptavidin, BD, Cat #: 554061, 1:200) was added at 100 μL/well, and the cells were incubated at 4° C. for 30 minutes in the dark. The cells were washed twice by adding pre-chilled PBS at 200 µL/well, and centrifuged at 500 g at 4° C. for 5 minutes, and the supernatant was discarded. Finally, the cells were resuspended in pre-chilled PBS at 200 μL/well, and the fluorescence signal values were read using an ACEA Novocyte3000 flow cytometer. IC50 was calculated.

Assay [6] addresses T1, human B7-H7 on the cell surface. In words: flow cytometry, LS180 cells. The procedure:
as §1

The target of assay [7] is T4, biotinylated human B7-H7 protein (Acro …). Put plainly: flow cytometry, blocking of biotinylated human B7-H7 binding to HEK-293/CD28H cells. As for the experimental part: as §2, with “CD28H. […]” for “KIR3DL3. A CHO-K1 cell (CHO-K1/KIR3DL3, Harbour BioMed US, Inc.) overexpressing human KIR3DL3 was used in experiments at the cellular level where human B7-H7/human KIR3DL3 binding was blocked. Briefly, the CHO-K1/KIR3DL3 cells were digested and resuspended in PBS containing 2% BSA.”, “μL/well,” for “µL/well,”

B1: PR003249 (antibody, human IgG1, kappa)
heavy: QVQLVESGGGVVQPGRSLRLSCAASGFTFSDYGIHWVRQAPGKGLEWVAVIWYDGSDKYYADSVRGRFTISRDNSKNTLSLQMNSLRVEDTAVYYCARDRSSGAMGYFVYWGQGTLVTVSS[not shown - human IgG1 constant region]
light: [not shown - about 100 residues][not shown - about 100 residues]
notes: Human IgG1; also called 25H3F2
By EC50 is commonly meant the concentration needed to bring the measured effect to its halfway point. By Kd is commonly meant the equilibrium constant for the complex coming apart. The term koff denotes the rate constant with which the complex falls apart. As a reminder, the kon is the second-order rate constant of association. A word on the IC50: it is the concentration that inhibits the measured activity by half. For B1, in assay [1], the EC50 amounted to 0.0151 nM and the “Maximum MFI” value stood at 55400 MFI. In addition, in assay [2], the EC50 amounted to 0.412 nM and the “Maximum MFI” value was 419000 MFI. In addition, in assay [3], a half-maximal effect (EC50) was put at 0.881 nM and the “Maximum MFI” value came to 800000 MFI. Besides, in assay [4], the Kd was found to be 1.83 nM, the koff was found to be 0.000178 s⁻¹ and the kon worked out at 97000 M⁻¹ s⁻¹. Also, in assay [5], the IC50 was 5.07 nM and the “Maximum inhibition rate (%)” value was determined as 97.5%. Also, in assay [6], the EC50 is 0.035 nM and the “Maximum MFI” value was found to be 21000 MFI. For the same molecule, in assay [7], the IC50 worked out at 1.38 nM and the “Maximum inhibition rate (%)” value was determined as 101%.
